Reference: patent US8927205

Molecular target: normal human wild-type TNF receptors on Kym1 cells
Assay: cell-based or functional assay

| Substance | ED50, cytotoxicity on Kym1 cells, solutions stored 16 days at 37° C. (FIG. 8) | ED50 after 22 days (FIG. 9), cytotoxicity on Kym1 cells, samples stored at 37° C. | ED50 freshly titrated (FIG. 7), cytotoxicity on Kym1 cells | ED50 after 8 days (FIG. 12), stored at 37° C. in 100% human serum, cytotoxicity on Kym1 cells | ED50 freshly titrated (FIG. 11), diluted in 100% human serum, cytotoxicity on Kym1 cells |
| --- | --- | --- | --- | --- | --- |
| scTNF3x (single-chain TNF with two (GGGS)3 peptide linkers) (a stretch of the chain, sequence not shown) (ligand) | 0.06 ng/mL | 0.07 ng/mL | 0.06 ng/mL | – | – |
| scTNF4x (single-chain TNF with two (GGGS)4 peptide linkers) (a stretch of the chain, sequence not shown) (ligand) | 0.06 ng/mL | 0.07 ng/mL | 0.06 ng/mL | 0.03 ng/mL | 0.007 ng/mL |
